Our source for the switch fluorescence ratio values is the supplement of paper PMC10126150.

Values marked as one replicate rest on one cluster of the flow cell; about a third of the high ones do not repeat.

For this data set, the system named is ATP. The experiment in a line: switch fluorescence ratio, 500 uM ATP over buffer (Cy3 cluster intensity, sum of 5 cycles each) (fold (ratio)); higher = stronger signal-on switching upon ATP binding; sequences stand for … in TCGTCGGCAGCGTCAGATGTGTATAAGAGACAGTTTTTTTTTTTTTTTTTTTTTTTTT…TC. Conditions: aptamer strand: ATP DNA aptamer (quencher-CACCTGGGGGAGTATTGCGGAGGAAGG + anchor), 100 nM annealed; ATP concentration: 500 uM; one replicate. An outline of the steps: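 Cy3-labelled switching-strand clusters on a modified Illumina MiSeq flow-cell were annealed to 100 nM quencher-labelled ATP aptamer and imaged first in selection buffer, then after 15 min with 500 uM ATP at 22 °C. NaOH stripping and re-annealing separated each of five buffer/ATP cycles, and clusters outside 100-1000 RFU were excluded. The fluorescence ratio sums target-cycle Cy3 intensity over buffer-cycle Cy3 intensity per cluster and averages it per switch-domain sequence.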
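Further: ATP exposure 15 min at 22 °C before imaging.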

On to TCCCTATTA, for which the switch fluorescence ratio amounted to 1.22.

Turning to AGTTTAAATT, the switch fluorescence ratio was found to be 1.01.

Consider GGTGGGAGAT, for which the switch fluorescence ratio is 0.972.

Take TCCGGCATCA: the switch fluorescence ratio is 0.963.

In the case of TACATTCGCT, the switch fluorescence ratio is 1.11.

In the case of AACAATCCTA, the switch fluorescence ratio is 1.01.

Turning to AGTCTAGATC, the switch fluorescence ratio came to 1.02.

For the sequence AGTATCGAA, the switch fluorescence ratio amounted to 0.981.

Turning to AATTTGGTGA, the switch fluorescence ratio is 1.03.

In the case of AGCATAGAA, the switch fluorescence ratio stood at 1.07.

Consider ACACGACGGT, for which the switch fluorescence ratio worked out at 1.26.

As to CGATGTTCTG, the switch fluorescence ratio worked out at 0.971.

On to AAACCGGTGC, for which the switch fluorescence ratio came to 1.14.

As for GGAAAGGAAG, the switch fluorescence ratio stood at 1.04.

CGTCCCTAAC: the switch fluorescence ratio turned out to be 2.4.

With GGCAGTTTGA, the switch fluorescence ratio stood at 0.992.

Take TTAGTACTCC: the switch fluorescence ratio is 1.54.

As for GTTAAATGG, the switch fluorescence ratio was 1.02.

As for AGCTTCGGGA, the switch fluorescence ratio worked out at 0.985.

With GAAGAATATC, the switch fluorescence ratio was 0.975.

Turning to AGTTGCGTGT, the switch fluorescence ratio was 0.99.

As for ATTAATAACT, the switch fluorescence ratio is 1.02.

As for CTGTGTTGGG, the switch fluorescence ratio was 1.01.

With CCTATGCTCG, the switch fluorescence ratio was found to be 1.03.

On to CTCTAGCATG, for which the switch fluorescence ratio was 1.29.

On to TTGTTGATCG, for which the switch fluorescence ratio turned out to be 1.01.

For ACACCTCACC, the switch fluorescence ratio was 1.47.

As for AGGCGCGCTT, the switch fluorescence ratio turned out to be 0.977.

For the sequence TGCCAATTAG, the switch fluorescence ratio was 1.

Regarding TACGGCAAT, the switch fluorescence ratio turned out to be 2.15.
